In PubChem BioAssay AID488969 (Vanderbilt High Throughput Screening Facility, 2010) one finds z-score data, which are given here for 71 compounds.

In all, about 110,000 compounds were measured (“z-score”: median about -0.1, highest 2% from about 2 on). Some of the results follow. Calls of active or inactive are those of the source.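 The calls were made as follows: active = z-score in the third read window above 3 or below -3; inactive = the rest.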

This assay deals with Metabotropic glutamate receptor 8 (Rattus norvegicus) (UniProt P70579). In words: rat mGluR8 modulators via GIRK flux, primary screen, cell-based, thallium flux, HTS (AID 488969). As to conditions: HEK293 rat mGluR8, GIRK (G protein-gated inwardly rectifying potassium channel) thallium flux, FluoZin2; at 10 µM; stronger effect = higher value; submaximal glutamate (EC20) added with thallium.
Chain of UniProt P70579 (P70579 whole entry, looked up): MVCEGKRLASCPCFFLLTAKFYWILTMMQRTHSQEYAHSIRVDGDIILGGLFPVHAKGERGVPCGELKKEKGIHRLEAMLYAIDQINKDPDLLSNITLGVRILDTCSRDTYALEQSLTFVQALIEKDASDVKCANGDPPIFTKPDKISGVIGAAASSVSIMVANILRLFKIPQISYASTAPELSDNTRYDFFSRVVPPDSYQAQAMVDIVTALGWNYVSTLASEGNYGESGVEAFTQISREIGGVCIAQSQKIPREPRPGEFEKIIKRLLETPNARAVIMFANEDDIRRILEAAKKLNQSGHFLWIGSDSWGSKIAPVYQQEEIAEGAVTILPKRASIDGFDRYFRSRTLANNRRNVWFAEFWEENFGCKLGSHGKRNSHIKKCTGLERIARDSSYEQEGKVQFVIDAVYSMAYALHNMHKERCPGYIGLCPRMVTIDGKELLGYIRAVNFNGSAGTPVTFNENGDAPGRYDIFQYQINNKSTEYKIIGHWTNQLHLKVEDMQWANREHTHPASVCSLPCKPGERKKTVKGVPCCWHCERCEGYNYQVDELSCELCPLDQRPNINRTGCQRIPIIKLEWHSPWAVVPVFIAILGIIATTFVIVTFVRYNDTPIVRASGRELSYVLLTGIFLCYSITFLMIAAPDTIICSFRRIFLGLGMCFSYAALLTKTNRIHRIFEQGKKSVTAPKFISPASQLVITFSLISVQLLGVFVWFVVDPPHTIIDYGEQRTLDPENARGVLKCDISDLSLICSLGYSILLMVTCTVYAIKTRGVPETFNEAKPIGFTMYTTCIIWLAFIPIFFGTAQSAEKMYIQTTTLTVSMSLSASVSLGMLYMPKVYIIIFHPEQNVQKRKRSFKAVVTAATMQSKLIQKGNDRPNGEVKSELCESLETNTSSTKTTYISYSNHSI
In the case of `Cc1ccc(OCC(=O)c2cc(C)n(C)c2C)c([N+](=O)[O-])n1`, the z-score was -0.137. Next, `Cc1ccc(-c2csc3ncnc(Nc4ccc(N5CCOCC5)cc4)c23)cc1`: 0.0875; `CCCOc1ccc(NCC(=O)Nc2ccc(C)cc2C)cc1`: -0.432. Next, `COc1ccc(CCNC(=O)/C(C#N)=C2\N=C(NC(=O)c3cccs3)c3ccccc32)cc1`: -0.179; `CC(=O)N1CCN(CC(=O)Nc2ccc(SC(F)F)cc2)CC1`: -0.0272; `O=C(/C=C/c1ccc(Cl)cc1Cl)NC(=S)Nc1ccc(CN2CCOCC2)cc1`: 0.0804.

`O=C(Nc1nc(N2C(=O)c3ccccc3C2=O)n(-c2ccccc2)n1)c1ccc(Cl)cc1` gave a z-score of -0.0149. `CCc1ccc(NS(=O)(=O)c2cc(OC)ccc2OC)cc1` yielded a z-score of -0.868.

Compound `Cc1ncsc1CCOC(=O)C1C2CC3CC(C2)CC1C3` (stereo unspecified) came in with a z-score of 0.00939.

In turn, `Cc1csc(NC(=O)CSc2nnc(CCNC(=O)c3cccs3)n2C)n1` came in with a z-score of -0.0983. The figure for `Cc1ccc(C(=O)Oc2cc(C)n(C)c(=O)c2)cc1` is -0.267; for `COc1ccc(CNCCC(c2ccc(OC(C)C)cc2)C(C)C)cc1OC` (stereo unspecified) it is 0.535; for `O=C(O)C1C(c2ccccc2)C(C(=O)Oc2ccc(O)cc2)C1c1ccccc1` (stereo unspecified) it is -0.507. The figure for `COc1ccc(NC(=O)CN(C)S(=O)(=O)c2ccccc2)cc1OC` is -0.21; for `O=c1c2cccnc2[nH]c(=S)n1Cc1ccccc1` it is active: 3; for `CCOc1ccc(NC(=O)C2CC(=O)N(c3cc(C)cc(C)c3)C2)cc1` (stereo unspecified) it is -0.0775. As for `Cc1ccc(-c2cc(-c3ccccc3[N+](=O)[O-])[nH]n2)c(O)c1`, the z-score is -0.292. For `CCS(=O)(=O)N1Cc2ccccc2CC1C(=O)NCC12CC3CC(CC(C3)C1)C2` (stereo unspecified), the z-score came to 0.189. Next, `CCOc1ccc(N2C(=O)CC(N3CCC(O)(c4ccc(Br)cc4)CC3)C2=O)cc1` (stereo unspecified): -0.0395; `CC(=O)c1cccc(NC(=O)C2CCN(S(=O)(=O)c3ccccc3)CC2)c1`: -0.0156. The figure for `CC(=O)c1c(C)[nH]c(C(=O)COC(=O)c2cccc(S(=O)(=O)N(C)c3ccccc3)c2)c1C` is 0.0974; for `COc1cccc(Oc2cn[nH]c2-c2ccc(OC)cc2O)c1` it is 0.852. The figure for `COCc1cc(=O)[nH]c(/N=C(\N)Nc2ccc(C)cc2)n1` is 0.0425; for `COc1cc(OC)c2c(OC)cccc2n1` it is -0.165. On to `O=C(Nc1cc(S(=O)(=O)N2CCCC2)ccc1OCC(F)(F)F)c1ccc(F)cc1`, for which the z-score is -0.267. The figure for `Cc1cc(C)n(CC(C)O)c(=O)c1C#N` (stereo unspecified) is -0.146; for `CC(=O)c1cccc(S(=O)(=O)NC2CCCCCC2)c1` it is -0.11; for `CCNS(=O)(=O)c1ccc(OCCNS(C)(=O)=O)cc1` it is -0.177. The figure for `CCCCCCCC1CC(CSc2ncn[nH]2)OC1=O` (stereo unspecified) is active: 5.73.

The compound `Cc1ccc(C(c2nnnn2CC2CCCO2)N2CCN(C(=O)c3ccco3)CC2)cc1` (stereo unspecified) gave a z-score of 0.413.

Compound `COc1ccc(C(=O)n2nnc3ccccc32)cc1Br` displayed a z-score of -0.0377.

Compound `Cc1cc2ncn(/N=C/c3cccnc3)c2cc1C` registered a z-score of 1.48.

`CSc1nc(C)c(CCOC(=O)c2cccc(C)c2)c(=O)[nH]1` returned a z-score of 0.169. In the case of `C=CCn1c(Cc2c[nH]c3ccccc23)nnc1SCC(=O)NCc1ccccc1`, the z-score is 1.02. The figure for `Cc1c(NC(=O)C23CC4CC(CC(C)(C4)C2)C3)c(=O)n(-c2ccccc2)n1C` is -0.193; for `CCOc1cc(CNCCSc2nnnn2C)cc(Br)c1OCc1ccccc1F` it is 0.196; for `CCN(CC)c1ccc2cc(C(C)=O)c(=O)oc2c1` it is -2.23.

`CCN=C1S/C(=C\c2ccc(Sc3ccc(Cl)cc3)o2)C(=O)N1CC` showed a z-score of -0.313. The compound `O=C(c1cnn2cccnc12)N1CCN(c2ccccc2)CC1` gave a z-score of 0.0788.

Turning to `COc1ccc(-n2ncc3c(=O)n(CC(=O)N4CCCc5ccccc54)cnc32)cc1`, the z-score was found to be 0.104. Next, `O=C(NC1CC1)C1CCN(c2ccc(S(=O)(=O)N3CCOCC3)cc2)CC1`: -0.303; `Cc1c(C(=O)NCc2ccco2)cccc1[N+](=O)[O-]`: -0.0721; `COc1ccc(NC(=O)C23CCC(C)(C(=O)O2)C3(C)C)cc1` (stereo unspecified): 0.0605. Next, `CCc1ccc(/C=N/n2c(C)cc(C)c(C#N)c2=O)cc1`: -0.158.

The compound `Nc1nc2n(n1)C(c1cccc(Br)c1)CC(c1ccc(F)cc1)N2` (stereo unspecified) returned a z-score of 0.693.

`Cc1ccc(-c2nnnn2CS(=O)(=O)c2ccccc2)cc1` yielded a z-score of -0.118.

Consider `O=C(CN1CCSC1=NCc1ccccc1)c1ccc(Cl)cc1`, for which the z-score was found to be 0.0664. The compound `COC(=O)COc1ccc2c(-c3ccc(OC)cc3)cc(=O)oc2c1` yielded a z-score of -0.548. The figure for `Cc1cc(C)c2ccc(NN)nc2c1O` is 1.51. Next, `CCOC(=O)c1cc2oc(C)cc2n1CC(=O)OC1CCCCC1`: 0.159; `Cc1ccc(-c2cc3ccccc3nc2N2CCCC2)cc1`: -0.0969.

`Cc1cc2n(c(=O)c1C#N)CCCN2c1ccccc1` registered a z-score of -0.204. Next, `O=C(O)C1C2C=CC(C2)C1C(=O)N1CCN(C/C=C/c2ccccc2)CC1` (stereo unspecified): 0.0931; `Oc1ccc(Cl)cc1-c1cc(-c2ccco2)[nH]n1`: -0.00898. The figure for `C/C(=N/NC(=S)Nc1ccccc1)c1ccc2c(c1)OCO2` is active: 7.92. Next, `Cc1nc(Sc2ccccc2)c(C#N)cc1-c1ccccc1`: -0.111. Compound `COc1cc(OC)cc(C(=O)n2nc(C)cc2C)c1` displayed a z-score of 0.0696. Regarding `Cc1ccc2c(c1)C1CN(C)CCC1N2C(=O)Nc1ccc(Cl)cc1` (stereo unspecified), the z-score stood at 0.457. Regarding `O=C(CN1C(=O)CCC1=O)Nc1nc(-c2ccccn2)cs1`, the z-score is -0.187. In the case of `CCCCOC(=O)c1ccc(Nc2ccc([N+](=O)[O-])cn2)cc1`, the z-score is -0.323.

The compound `O=C(Nc1cccnc1)c1ccc2c(c1)C(=O)N(Cc1cccnc1)C2=O` registered a z-score of -0.157. The figure for `COc1ccc([N+](=O)[O-])cc1NC(=O)CSCc1cc(C)cc(C)c1` is -0.0401. The figure for `O=C(c1ccc([N+](=O)[O-])cc1)N1CCSC1c1ccccc1` (stereo unspecified) is 0.166. Next, `COc1ccc(Oc2coc3cc(OC(=O)c4cncc(Br)c4)ccc3c2=O)cc1`: 0.127; `Cc1sc(NC(=O)c2ccco2)c(CN2CCC(C)CC2)c1C`: 0.102. In turn, `Cc1ccc2c(c1)c(C)c(C)n2CC(O)Cn1nc(C)c(Br)c1C` (stereo unspecified) gave a z-score of 1.09. For the compound `CCOc1ccc(Cn2ccnc2CCl)cc1[N+](=O)[O-]`, the z-score is -0.00871. Next, `CCOC(=O)c1cc(=O)n2nc(-c3ccccc3F)nc2s1`: -0.0057; `Cc1cccc(NC(=O)Cn2c(O)c(N=NC(=O)c3ccccc3O)c3ccccc32)c1`: -0.0679; `Cc1c(C(=O)NCc2ccccn2)oc2ccccc12`: -0.3. The figure for `O=C(CSc1ncc(-c2ccccc2)n1C1CCCC1)N1CCc2ccccc21` is -0.347.
